Some of the results follow. The energies were worked out here from pooled read counts, against the library average; single values are noisy.
These sequences were tested against T1, Pho4 (S. cerevisiae) (UniProt P07270) (assay: relative binding free energy (BET-seq); higher = weaker binding). Conditions: reference: library average.
T1 sequence: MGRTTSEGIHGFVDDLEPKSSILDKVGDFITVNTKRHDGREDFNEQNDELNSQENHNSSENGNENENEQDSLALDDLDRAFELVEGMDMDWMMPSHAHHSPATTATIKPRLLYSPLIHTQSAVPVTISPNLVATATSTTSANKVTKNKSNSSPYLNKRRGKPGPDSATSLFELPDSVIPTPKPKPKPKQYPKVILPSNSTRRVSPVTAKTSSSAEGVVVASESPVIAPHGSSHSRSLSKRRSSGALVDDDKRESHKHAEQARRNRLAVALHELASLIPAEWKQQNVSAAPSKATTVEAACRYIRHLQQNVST
With CTTTGCACGTGTTGTC the “relative binding free energy” value was 0 kcal/mol. In the case of ATTAACACGTGGTTTA, the “relative binding free energy” value is reported as -0.04 kcal/mol. With TGTGACACGTGATAAG the “relative binding free energy” value was 0.04 kcal/mol. For TGTAGCACGTGTAAGG, the “relative binding free energy” value was 0.01 kcal/mol. For CGATACACGTGGGGTG, the “relative binding free energy” value was -0.16 kcal/mol. In the case of GTAGGCACGTGTTCGG, the “relative binding free energy” value is reported as 0.05 kcal/mol. AATGTCACGTGCAGTA was tested, and the “relative binding free energy” value was 0.18 kcal/mol. For TAGTGCACGTGTAATG, the “relative binding free energy” value was 0.14 kcal/mol. With TGGGTCACGTGATACG the “relative binding free energy” value was 0.29 kcal/mol. In the case of TTTAGCACGTGGAGAG, the “relative binding free energy” value is reported as -0.06 kcal/mol. With AAAGTCACGTGGATTG the “relative binding free energy” value was -0.04 kcal/mol. For GACGTCACGTGGGCTG, the “relative binding free energy” value was 0.02 kcal/mol. GATAGCACGTGTTTTG was tested, and the “relative binding free energy” value was 0 kcal/mol. With GTAGGCACGTGCTATG the “relative binding free energy” value was -0.16 kcal/mol. With GCGGTCACGTGTTGTG the “relative binding free energy” value was 0.02 kcal/mol. With TTTGCCACGTGGATAT the “relative binding free energy” value was -0.06 kcal/mol. ACGGGCACGTGTTAAG was tested, and the “relative binding free energy” value was -0.07 kcal/mol. For TATGACACGTGGCAGT, the “relative binding free energy” value was -0.05 kcal/mol. In the case of CATATCACGTGTTTTT, the “relative binding free energy” value is reported as 0.13 kcal/mol. ATGCACACGTGTTGGT was tested, and the “relative binding free energy” value was 0.07 kcal/mol. ATGTCCACGTGTTAGG was tested, and the “relative binding free energy” value was -0.01 kcal/mol. With ACGGACACGTGAGGTG the “relative binding free energy” value was 0.32 kcal/mol. For GGATTCACGTGTTGGA, the “relative binding free energy” value was 0.18 kcal/mol. TACAGCACGTGTGGAT was tested, and the “relative binding free energy” value was -0.02 kcal/mol. In the case of GAAGTCACGTGATATA, the “relative binding free energy” value is reported as 0.34 kcal/mol. For TTGTGCACGTGGAGGA, the “relative binding free energy” value was -0.03 kcal/mol. GTTTGCACGTGCTAGT was tested, and the “relative binding free energy” value was -0.06 kcal/mol. With TAGCTCACGTGTATTG the “relative binding free energy” value was 0.18 kcal/mol. ATGAGCACGTGAGTTA was tested, and the “relative binding free energy” value was 0.18 kcal/mol. GAAGTCACGTGTGGCG was tested, and the “relative binding free energy” value was 0.11 kcal/mol. GGGTTCACGTGGGTCC was tested, and the “relative binding free energy” value was 0.25 kcal/mol. In the case of GAGTGCACGTGAGAAG, the “relative binding free energy” value is reported as 0.35 kcal/mol. ATGAACACGTGAGTGT was tested, and the “relative binding free energy” value was 0.35 kcal/mol. In the case of GTGGGCACGTGTATAG, the “relative binding free energy” value is reported as -0.04 kcal/mol. With ACATTCACGTGGTGGA the “relative binding free energy” value was 0.26 kcal/mol. AGTATCACGTGAGTAA was tested, and the “relative binding free energy” value was 0.3 kcal/mol. AAGGTCACGTGTTTCA was tested, and the “relative binding free energy” value was 0.2 kcal/mol. With TCTTTCACGTGGATAG the “relative binding free energy” value was 0.19 kcal/mol. With CGGTACACGTGTAGGG the “relative binding free energy” value was -0.06 kcal/mol. For GTGGGCACGTGAGGAG, the “relative binding free energy” value was 0.18 kcal/mol. For TAGTTCACGTGGTCGG, the “relative binding free energy” value was 0.02 kcal/mol. In the case of TTAAGCACGTGGATGT, the “relative binding free energy” value is reported as -0.05 kcal/mol. With CAGGGCACGTGGGAGC the “relative binding free energy” value was -0.21 kcal/mol. For AGGAGCACGTGTGCTG, the “relative binding free energy” value was -0.14 kcal/mol. With TGTGACACGTGGTCAT the “relative binding free energy” value was -0.16 kcal/mol. For ATGCTCACGTGGTAGG, the “relative binding free energy” value was 0.06 kcal/mol. With GCATTCACGTGTTTGA the “relative binding free energy” value was 0.15 kcal/mol. For GGCATCACGTGGTAGT, the “relative binding free energy” value was 0.14 kcal/mol. GGGGCCACGTGTGTTA was tested, and the “relative binding free energy” value was -0.08 kcal/mol. With TAAAACACGTGTATGG the “relative binding free energy” value was 0 kcal/mol. In the case of GTTCGCACGTGAGGGC, the “relative binding free energy” value is reported as 0.15 kcal/mol. AGGCACACGTGTTGGG was tested, and the “relative binding free energy” value was -0.02 kcal/mol. With AGTGGCACGTGGTCGG the “relative binding free energy” value was -0.24 kcal/mol. ATCAGCACGTGGAGTG was tested, and the “relative binding free energy” value was -0.12 kcal/mol. GGTAGCACGTGAGTGT was tested, and the “relative binding free energy” value was 0.22 kcal/mol. For TTGAGCACGTGTGGTT, the “relative binding free energy” value was 0.06 kcal/mol. In the case of GATAGCACGTGATGTG, the “relative binding free energy” value is reported as 0.14 kcal/mol. For ATGATCACGTGTGGGA, the “relative binding free energy” value was 0.13 kcal/mol. In the case of AGGGCCACGTGTGCGG, the “relative binding free energy” value is reported as -0.11 kcal/mol. In the case of GATAACACGTGTTTGT, the “relative binding free energy” value is reported as 0.13 kcal/mol. TGCATCACGTGGCGTG was tested, and the “relative binding free energy” value was 0.08 kcal/mol. For GAGTGCACGTGTATGT, the “relative binding free energy” value was 0.09 kcal/mol. ATAGTCACGTGTTGGC was tested, and the “relative binding free energy” value was 0.12 kcal/mol. In the case of TGGTTCACGTGGTTCC, the “relative binding free energy” value is reported as 0.24 kcal/mol. With GGAATCACGTGAAGTT the “relative binding free energy” value was 0.29 kcal/mol. GGGTTCACGTGTAACA was tested, and the “relative binding free energy” value was 0.44 kcal/mol. TTGGGCACGTGCTGAT was tested, and the “relative binding free energy” value was -0.1 kcal/mol. For TCGGACACGTGTAGTT, the “relative binding free energy” value was 0.17 kcal/mol. TATGACACGTGTTAAG was tested, and the “relative binding free energy” value was 0.02 kcal/mol. With GGTGACACGTGCTTTT the “relative binding free energy” value was -0.06 kcal/mol. For TTTTACACGTGTCATT, the “relative binding free energy” value was -0.01 kcal/mol. CCAGTCACGTGGGTGG was tested, and the “relative binding free energy” value was 0.1 kcal/mol. AGGCACACGTGAGAGG was tested, and the “relative binding free energy” value was 0.21 kcal/mol. GTCAGCACGTGGGTTA was tested, and the “relative binding free energy” value was -0.13 kcal/mol. For GCGAACACGTGGGGGC, the “relative binding free energy” value was 0 kcal/mol. TAGTTCACGTGGACGT was tested, and the “relative binding free energy” value was 0.2 kcal/mol. For TGAGACACGTGCAGGT, the “relative binding free energy” value was -0.02 kcal/mol. CTGGCCACGTGGTTGT was tested, and the “relative binding free energy” value was -0.02 kcal/mol. For GATGACACGTGGAGGG, the “relative binding free energy” value was 0.12 kcal/mol. With AGAGGCACGTGTTAAA the “relative binding free energy” value was -0.07 kcal/mol. In the case of TATAGCACGTGGTGGA, the “relative binding free energy” value is reported as -0.2 kcal/mol. For TTCTTCACGTGTTTCG, the “relative binding free energy” value was 0.31 kcal/mol. In the case of TCGCGCACGTGGAGAG, the “relative binding free energy” value is reported as 0.13 kcal/mol. In the case of ATTTCCACGTGGGATG, the “relative binding free energy” value is reported as -0.1 kcal/mol. For TGAGTCACGTGGAGGC, the “relative binding free energy” value was 0.14 kcal/mol. In the case of CGGGGCACGTGGTGAG, the “relative binding free energy” value is reported as -0.14 kcal/mol. In the case of CGGCTCACGTGGGAGG, the “relative binding free energy” value is reported as 0.1 kcal/mol. For AGGTCCACGTGTGAAT, the “relative binding free energy” value was 0.18 kcal/mol. In the case of TAGTTCACGTGGGGGA, the “relative binding free energy” value is reported as 0.08 kcal/mol. For TTGGTCACGTGTACTG, the “relative binding free energy” value was 0.18 kcal/mol. AGAAGCACGTGTTAAG was tested, and the “relative binding free energy” value was 0.05 kcal/mol. For AGTCTCACGTGAGGTT, the “relative binding free energy” value was 0.28 kcal/mol. For GAGGGCACGTGAACGT, the “relative binding free energy” value was 0.12 kcal/mol. CTATTCACGTGAGTGT was tested, and the “relative binding free energy” value was 0.38 kcal/mol. For TGTTGCACGTGGGTCC, the “relative binding free energy” value was 0 kcal/mol. GAGGTCACGTGGGTGC was tested, and the “relative binding free energy” value was -0.01 kcal/mol. In the case of TTGCACACGTGTTGGG, the “relative binding free energy” value is reported as 0.03 kcal/mol. GCAGTCACGTGGTTAG was tested, and the “relative binding free energy” value was -0.06 kcal/mol. With TAGATCACGTGACGTT the “relative binding free energy” value was 0.37 kcal/mol. In the case of TCTTGCACGTGGCTGA, the “relative binding free energy” value is reported as 0.05 kcal/mol. AGCATCACGTGGAGTG was tested, and the “relative binding free energy” value was 0.08 kcal/mol. With GTGTTCACGTGTGTGA the “relative binding free energy” value was 0.26 kcal/mol. In the case of TGGGCCACGTGGCTAG, the “relative binding free energy” value is reported as -0.09 kcal/mol. CGGGACACGTGTGTTT was tested, and the “relative binding free energy” value was 0.05 kcal/mol. With TTTGGCACGTGTGATT the “relative binding free energy” value was 0.06 kcal/mol. In the case of GTGGTCACGTGGATTC, the “relative binding free energy” value is reported as 0.33 kcal/mol. With ATTGGCACGTGTGTTG the “relative binding free energy” value was -0.08 kcal/mol. In the case of TACGGCACGTGTCGTG, the “relative binding free energy” value is reported as -0.11 kcal/mol. With TTGTCCACGTGAAGGG the “relative binding free energy” value was 0.34 kcal/mol. In the case of TGTGTCACGTGGACCG, the “relative binding free energy” value is reported as -0.03 kcal/mol. In the case of CTGGGCACGTGTCGGT, the “relative binding free energy” value is reported as -0.07 kcal/mol. With TCTTTCACGTGCAGTT the “relative binding free energy” value was 0.23 kcal/mol. For GGAGTCACGTGTTGGT, the “relative binding free energy” value was 0.19 kcal/mol. In the case of GGAATCACGTGGAGAT, the “relative binding free energy” value is reported as 0.2 kcal/mol. With TGAGTCACGTGAGATT the “relative binding free energy” value was 0.3 kcal/mol.

From the BET-seq Pho4 binding data (Le et al. 2018)
